Test results: the supplement of paper PMC7726561
In all, about 1,400 sequences were measured (“thermal melting temperature (Tm) of peptide-HLA complex”: median about 60, lowest 2% from about 45 on). The list shows a part of the results.
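Further: cell lysates heated 10 min at 37–73 °C, remaining pHLA pulled down with pan-class I antibody, peptides quantified by DIA-MS versus 37 °C, Tm where half the complex is lost.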

What follows are sequences tested against HLA-B*07:02 (assay: thermal melting temperature (Tm) of peptide-HLA complex; higher = more thermostable pHLA complex). Settings: C1R-B*07:02.
YPEILRSNL was tested, and the thermal melting temperature was 57.3 °C. In the case of APRTVSVQTL, the thermal melting temperature is reported as 59.8 °C. For SPRTPVSPVKF, the thermal melting temperature was 59.3 °C. SPRALTQPLGL gave a thermal melting temperature of 61.2 °C. With TPAPSRTASF the thermal melting temperature was 51.1 °C. Work on SPNQKLLAVSL yielded a thermal melting temperature of 60 °C. Work on VPASFRLQM yielded a thermal melting temperature of 62.2 °C. For APRPASGPIRP, the thermal melting temperature was 57.3 °C. With KPQTKLLIL the thermal melting temperature was 60.8 °C. For APAPPKAEA, the thermal melting temperature was 63 °C. QPRDIGLQI showed a thermal melting temperature of 61.3 °C. In the case of RPGPAAPIAL, the thermal melting temperature is reported as 59.5 °C. Sequence GPRFSPITPL has a thermal melting temperature of 61.5 °C. With AVRKPAISL the thermal melting temperature was 60.7 °C. TPHARIIEL was tested, and the thermal melting temperature was 59.9 °C. Work on SPRFPAQYL yielded a thermal melting temperature of 62.6 °C. KPAASPLTSL gave a thermal melting temperature of 61.2 °C. Sequence NPNMRLSQL has a thermal melting temperature of 59.5 °C. Work on RPWTVMESL yielded a thermal melting temperature of 59.6 °C. QPRPPVTLI was tested, and the thermal melting temperature was 60.7 °C. SPRNEVEAL gave a thermal melting temperature of 58.1 °C. SPRWGGIMV gave a thermal melting temperature of 62.3 °C. With RPAGPVAVGI the thermal melting temperature was 43.3 °C. HPNGNITEL was tested, and the thermal melting temperature was 55.3 °C. Work on SPAPQPPVL yielded a thermal melting temperature of 63.3 °C. KPRTPFTTAQL showed a thermal melting temperature of 45.6 °C. Work on MPHVPITTL yielded a thermal melting temperature of 61.3 °C. In the case of GPNGGIVTSL, the thermal melting temperature is reported as 62.8 °C. YPRPLLIAF was tested, and the thermal melting temperature was 62 °C. With RPFADVLSL the thermal melting temperature was 61.8 °C. MPFPNIRSAEL gave a thermal melting temperature of 58.2 °C. SPFLLGRAL was tested, and the thermal melting temperature was 61.7 °C. Work on IPDHFRPPL yielded a thermal melting temperature of 60.4 °C. For TPAPRPLLL, the thermal melting temperature was 61.5 °C. LPYKAGLSL gave a thermal melting temperature of 61 °C. Sequence RPYHTIIEI has a thermal melting temperature of 56.7 °C. With MPSQFRDIL the thermal melting temperature was 63.4 °C. RPPYYTPNQL showed a thermal melting temperature of 58.6 °C. SPSQPWQRL was tested, and the thermal melting temperature was 58.4 °C. Work on RPITDSPVL yielded a thermal melting temperature of 59.6 °C. Work on QPQGPPWLAL yielded a thermal melting temperature of 60 °C. IPAYKLETL showed a thermal melting temperature of 63 °C. In the case of QPSVQPPL, the thermal melting temperature is reported as 54.3 °C. Work on RPAPLSAEL yielded a thermal melting temperature of 61.2 °C. GPQIPRAAL was tested, and the thermal melting temperature was 59.7 °C. RPLLKAITA gave a thermal melting temperature of 60.6 °C. HPIQVQPGRIL showed a thermal melting temperature of 57.2 °C. Work on FPRNNISYL yielded a thermal melting temperature of 59.8 °C. With APQWPIIAF the thermal melting temperature was 65.6 °C. RPKLPEDPLL was tested, and the thermal melting temperature was 60.6 °C. Work on LPRREGYEF yielded a thermal melting temperature of 54.9 °C. In the case of RPIPQWIRM, the thermal melting temperature is reported as 52 °C. For MPRGPTLGH, the thermal melting temperature was 57.3 °C. For TARPPGYEF, the thermal melting temperature was 57.4 °C. QPVPRSVL gave a thermal melting temperature of 51 °C. In the case of PAWPHRGL, the thermal melting temperature is reported as 52.2 °C.
